{"source": "patent US20180094059A1", "about": "(UNIVERSITAT STUTTGART, published 2018)", "binders": {"B1": {"name": "TRAIL-R1-Fc (Fc fusion)", "chain": "not shown", "notes": "extracellular domain; also called DR4-Fc; not shown: Fc-part"}}, "key": {"[1]": {"molecular_target": "EGFR on EGFR-positive tumor cell lines (UniProt P00533)", "experiment": "cell-based or functional assay"}, "TRAIL-R2-Fc [2]": {"molecular_target": "T1, TRAIL-R2-Fc (human, UniProt O14763 56-210)", "T1 construct": "extracellular domain; also called DR5-Fc; DR5-Fc fusion protein; not shown: Fc-part", "experiment": "ELISA, TRAIL R2-Fc"}, "TRAIL-R1-Fc [3]": {"molecular_target": "B1", "experiment": "ELISA, TRAIL R1-Fc"}, "[4]": {"molecular_target": "T2, scTRAIL3-… (Homo sapiens (Human), UniProt P50591 118-281)", "T2 construct": "additional N-terminal FLAG tag; also called monomeric control protein", "experiment": "ELISA, TRAIL R1-Fc"}, "TRAIL-R2-Fc [5]": {"molecular_target": "T1, TRAIL-R2-Fc", "experiment": "ELISA, TRAIL R2-Fc", "remark": "listed apart in the source"}, "TRAIL-R1-Fc [6]": {"molecular_target": "B1", "experiment": "ELISA, TRAIL R1-Fc", "remark": "listed apart in the source"}, "TRAIL-R2-Fc [7]": {"molecular_target": "T1, TRAIL-R2-Fc", "experiment": "ELISA, TRAIL-R2-Fc"}}, "data": [{"binder": "scFvhu225-Fc-scTRAIL3-FLVGGGPQRVA (Fc fusion, Dimeric EGFR-targeting fusion protein; also called scFv-Fc-scTRAIL3) DYKDDDDKGGGGSGTEVQLVESGGGLVQPGGSLRLSCAASGFSLTNYGVHWVRQAPGKGLEWLGVIWSGGNTDYNTPFTSRFTISRDNSKNTLYLQMNSLRAEDTAVYYCARALTYYDYEFAYWGQGTTVTVSSGGGGSGGGGSGGGGSDIQLTQSPSFLSASVGDRVTITCRASQSIGTNIHWYQQKPGKAPKLLIKYASESISGVPSRFSGSGSGTEFTLTISSLQPEDFATYYCQQNNNWPTTFGAGTKLEIKRAAAGGSGG[sequence of human IgG1 Fc omitted]GGSGGGSSGGGPQRVAAHITGTRGRSNTLSSPNSKNEKALGRKINSWESSRSGHSFLSNLHLRNGELVIHEKGFYYIYSQTYFRFQEEIKENTKNDKQMVQYIYKYTSYPDPILLMKSARNSCWSKDAEYGLYSIYQGGIFELKENDRIFVSVTNEHLIDMDHEASFFGAFLVGGGPQRVAAHITGTRGRSNTLSSPNSKNEKALGRKINSWESSRSGHSFLSNLHLRNGELVIHEKGFYYIYSQTYFRFQEEIKENTKNDKQMVQYIYKYTSYPDPILLMKSARNSCWSKDAEYGLYSIYQGGIFELKENDRIFVSVTNEHLIDMDHEASFFGAFLVGGGPQRVAAHITGTRGRSNTLSSPNSKNEKALGRKINSWESSRSGHSFLSNLHLRNGELVIHEKGFYYIYSQTYFRFQEEIKENTKNDKQMVQYIYKYTSYPDPILLMKSARNSCWSKDAEYGLYSIYQGGIFELKENDRIFVSVTNEHLIDMDHEASFFGAFLVG", "values": [{"measurement": "EC50 of cell death induction, Colo205, with bortezomib", "setting": "[1]", "value": 0.0023, "unit": "nM"}, {"measurement": "EC50 of cell death induction, Colo205, without bortezomib", "setting": "[1]", "value": 0.0125, "unit": "nM"}, {"measurement": "EC50 of cell death induction, Colo205 in presence of Cetuximab, with bortezomib", "setting": "[1]", "value": 0.0057, "unit": "nM"}, {"measurement": "EC50 of cell death induction, Colo205 in presence of Cetuximab, without bortezomib", "setting": "[1]", "value": 0.0662, "unit": "nM"}]}, {"binder": "scTRAIL3-FAVSGAA-“W”-Fc (Fc fusion, 33 aa alpha-helical linker; dimeric; also called scTRAIL3-“W”-FAVSGAA-Fc) DYKDDDDKGGGGSGTGGAAAHITGTRGRSNTLSSPNSKNEKALGRKINSWESSRSGHSFLSNLHLRNGELVIHEKGFYYIYSQTYFRFQEEIKENTKNDKQMVQYIYKYTSYPDPILLMKSARNSCWSKDAEYGLYSIYQGGIFELKENDRIFVSVTNEHLIDMDHEASFFGAFAVSGAAAHITGTRGRSNTLSSPNSKNEKALGRKINSWESSRSGHSFLSNLHLRNGELVIHEKGFYYIYSQTYFRFQEEIKENTKNDKQMVQYIYKYTSYPDPILLMKSARNSCWSKDAEYGLYSIYQGGIFELKENDRIFVSVTNEHLIDMDHEASFFGAFAVSGAAAHITGTRGRSNTLSSPNSKNEKALGRKINSWESSRSGHSFLSNLHLRNGELVIHEKGFYYIYSQTYFRFQEEIKENTKNDKQMVQYIYKYTSYPDPILLMKSARNSCWSKDAEYGLYSIYQGGIFELKENDRIFVSVTNEHLIDMDHEASFFGAFAVSGGSGEAAAKEAAAKEAAAKEAAAKEAAAKGSGG[sequence of human IgG1 Fc omitted]", "values": [{"measurement": "EC50", "setting": "TRAIL-R2-Fc [2]", "value": 0.54, "unit": "nM"}, {"measurement": "EC50", "setting": "TRAIL-R1-Fc [3]", "value": 3.91, "unit": "nM"}]}, {"binder": "B1", "values": [{"measurement": "binding result", "setting": "[4]", "value": "binds"}]}, {"binder": "scTRAIL3-FAVSGAA-Fc-scTRAIL3-FAVSGAA (Fc fusion, two 16 aa linkers with N-glycosylation sites, Tetrameric assembly of scTRAIL3-FAVSGAA) DYKDDDDKGGGGSGTGGAAAHITGTRGRSNTLSSPNSKNEKALGRKINSWESSRSGHSFLSNLHLRNGELVIHEKGFYYIYSQTYFRFQEEIKENTKNDKQMVQYIYKYTSYPDPILLMKSARNSCWSKDAEYGLYSIYQGGIFELKENDRIFVSVTNEHLIDMDHEASFFGAFAVSGAAAHITGTRGRSNTLSSPNSKNEKALGRKINSWESSRSGHSFLSNLHLRNGELVIHEKGFYYIYSQTYFRFQEEIKENTKNDKQMVQYIYKYTSYPDPILLMKSARNSCWSKDAEYGLYSIYQGGIFELKENDRIFVSVTNEHLIDMDHEASFFGAFAVSGAAAHITGTRGRSNTLSSPNSKNEKALGRKINSWESSRSGHSFLSNLHLRNGELVIHEKGFYYIYSQTYFRFQEEIKENTKNDKQMVQYIYKYTSYPDPILLMKSARNSCWSKDAEYGLYSIYQGGIFELKENDRIFVSVTNEHLIDMDHEASFFGAFAVSGSGNGTSNGTSGSSRT[sequence of human IgG1 Fc omitted]GSGNGTSNGTSGSSGGAAAHITGTRGRSNTLSSPNSKNEKALGRKINSWESSRSGHSFLSNLHLRNGELVIHEKGFYYIYSQTYFRFQEEIKENTKNDKQMVQYIYKYTSYPDPILLMKSARNSCWSKDAEYGLYSIYQGGIFELKENDRIFVSVTNEHLIDMDHEASFFGAFAVSGAAAHITGTRGRSNTLSSPNSKNEKALGRKINSWESSRSGHSFLSNLHLRNGELVIHEKGFYYIYSQTYFRFQEEIKENTKNDKQMVQYIYKYTSYPDPILLMKSARNSCWSKDAEYGLYSIYQGGIFELKENDRIFVSVTNEHLIDMDHEASFFGAFAVSGAAAHITGTRGRSNTLSSPNSKNEKALGRKINSWESSRSGHSFLSNLHLRNGELVIHEKGFYYIYSQTYFRFQEEIKENTKNDKQMVQYIYKYTSYPDPILLMKSARNSCWSKDAEYGLYSIYQGGIFELKENDRIFVSVTNEHLIDMDHEASFFGAFAVS", "values": [{"measurement": "binding result", "setting": "TRAIL-R2-Fc [5]", "value": "binds"}, {"measurement": "binding result", "setting": "TRAIL-R1-Fc [6]", "value": "binds"}]}, {"binder": "scFv4D5-EHD2-scTRAIL3-FLVGGGPQRVA (other, HER2-targeting EHD2 fusion) DYKDDDDKGGGGSGT[sequence of about 120 residues omitted]GGGGSGGGGSGGGGS[sequence of about 100 residues omitted]RAAAGGSGGDFTPPTVKILQSSCDGGGHFPPTIQLLCLVSGYTPGTINITWLEDGQVMDVDLSTASTTQEGELASTQSELTLSQKHWLSDRTYTCQVTYQGHTFEDSTKKCADSNGGSGGASSGGGPQRVAAHITGTRGRSNTLSSPNSKNEKALGRKINSWESSRSGHSFLSNLHLRNGELVIHEKGFYYIYSQTYFRFQEEIKENTKNDKQMVQYIYKYTSYPDPILLMKSARNSCWSKDAEYGLYSIYQGGIFELKENDRIFVSVTNEHLIDMDHEASFFGAFLVGGGPQRVAAHITGTRGRSNTLSSPNSKNEKALGRKINSWESSRSGHSFLSNLHLRNGELVIHEKGFYYIYSQTYFRFQEEIKENTKNDKQMVQYIYKYTSYPDPILLMKSARNSCWSKDAEYGLYSIYQGGIFELKENDRIFVSVTNEHLIDMDHEASFFGAFLVGGGPQRVAAHITGTRGRSNTLSSPNSKNEKALGRKINSWESSRSGHSFLSNLHLRNGELVIHEKGFYYIYSQTYFRFQEEIKENTKNDKQMVQYIYKYTSYPDPILLMKSARNSCWSKDAEYGLYSIYQGGIFELKENDRIFVSVTNEHLIDMDHEASFFGAFLVG", "values": [{"measurement": "EC50", "setting": "TRAIL-R2-Fc [7]", "value": 2.21, "unit": "nM"}]}]}
